Assay results published in the supplement of paper PMC3334620.
Over roughly 33,000 sequences, “E-score (-0.5 to 0.5)” has its median near -0.017; the highest 2% begin near 0.3. This is one part of the list.

Target: T1, Sut1 (UniProt P53032)
T1 sequence: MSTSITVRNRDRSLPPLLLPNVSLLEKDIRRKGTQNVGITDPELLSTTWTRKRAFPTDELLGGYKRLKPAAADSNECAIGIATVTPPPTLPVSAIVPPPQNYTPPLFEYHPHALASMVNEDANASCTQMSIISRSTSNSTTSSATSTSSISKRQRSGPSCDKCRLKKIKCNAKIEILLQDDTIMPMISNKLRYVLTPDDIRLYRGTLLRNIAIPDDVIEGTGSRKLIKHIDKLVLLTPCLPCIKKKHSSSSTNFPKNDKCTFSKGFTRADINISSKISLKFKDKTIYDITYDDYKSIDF
Test: PBM E-score (8-mer binding enrichment) (E-score (-0.5 to 0.5)); higher = stronger / more preferred TF binding; most listed sequences are background and not binding sites
Settings: protein concentration: 200 nM; construct: GST-full length
In short: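 Each ungapped eight-base word and its reverse complement, pooled, received an E-score from the Universal PBM Analysis Suite. Underlying scans, normalised with masliner, recorded fluorescent anti-GST bound to GST-tagged yeast transcription factors. These were applied at about 100-200 nM to universal all-10-mer Agilent arrays double-stranded by primer extension.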

Sequence | PBM E-score
AAAACTGC | 0.0281
CGCATGCG | -0.167
ACGGTCGA | -0.135
CGTGGACA | -0.0891
AACCGTTG | 0.0827
ACAGGGCC | -0.116
CCAGATCG | -0.204
CGCAACAG | -0.0306
CCCACTTA | 0.109
ACATAGAA | 0.0944
ATTTTCAA | 0.131
GCTCCCAC | -0.109
CAAACTAC | -0.0611
AGCTGCCA | -0.2
CGTTCCGC | -0.0209
CTGGATTC | 0.0502
CAGCCCTG | -0.233
ACTTCCTC | -0.183
CAGCGGAC | 0.104
AAGACAAA | 0.0437
ATACCTCA | 0.0177
ATTACAAC | 0.183
CTTTGATC | 0.0392
CACTAAAG | 0.0709
TAAAGGTA | 0.0902

Sequence | PBM E-score
ATTGCTCA | 9e-05
CAATCCGG | 0.133
CAGCTACC | -0.224
AGATTGTG | -0.0591
ATTTGCTC | 0.141
TCCCGTAA | -0.0821
CGACGCAG | -0.132
GCTGAAGA | -0.00656
AACTGCAC | 0.0943
AACAGCTG | 0.00427
AGAGAAAG | -0.0845
CCACTTCG | -0.0349
CAACTGTA | -0.0516
CCCGAGGA | -0.118
ATGTCAGG | -0.173
ATTGTTTC | 0.214
TCTCGACA | -0.0229
CACCTAAC | 0.0376
CTGGTTTA | -0.0882
GCTTTCGA | 0.143
AGTACACA | 0.0203
AAAGCCCC | -0.103
CTTGTCTC | 0.076
CAAGATTA | 0.132
CTCTGTGC | -0.122

Sequence | PBM E-score
CAAAAGAA | 0.23
CCATGCTC | -0.234
CAAAGCAG | -0.0772
CTTTGATA | 0.108
AGGAGGAG | -0.183
CGGTGTTC | 0.0548
ACTTATAT | 0.325
ATCTTTAA | 0.292
ACAGGCGT | -0.298
AGGGGCGC | -0.264
AAACTTTC | 0.105
AAGGAGCC | -0.0696
ACGTGAGG | -0.0314
ATTAATGA | 0.267
ATCAGAGG | -0.121
AAACAATC | 0.204
CGCTTGAA | 0.0538
ATACATGG | 0.155
CAATCCCA | -0.0642
GCTCACAC | -0.33
GGTACGAA | 0.0616
AGGCGAAT | 0.0276
ATGCTGGG | -0.281
GAGATGCA | -0.0694
AAGTCGGC | -0.133

Sequence | PBM E-score
AATTTACG | 0.198
ACCAGTCG | 0.0629
ATCGTGTC | 0.00577
CAGAGAAA | -0.0232
AGCGTCCT | -0.288
CTCCTTAC | -0.0855
ACGAGGAT | -0.287
AGTTCCGC | 0.131
GTTTTTCA | 0.202
ACATTAAC | 0.173
ATTCCCAA | 0.158
CCCTCTTC | -0.349
GCGGGCCC | -0.175
AGATTCCG | 0.296
GGTCCTTA | -0.0839
ACTGCTCA | 0.0487
ATGGGATA | 0.0485
ATCGCATA | 0.13
GAAAACCA | 0.0111
ATCCAAAT | 0.0947
TGACTCAA | -0.108
ATTCAAGA | 0.0929
GACGAACA | 0.0226
AGAGAGCT | -0.212
CCAGGCCG | -0.135

Sequence | PBM E-score
CGCACATA | -0.189
CAAAAGGA | 0.0153
AGTTGGGG | -0.00455
GTCCTCAC | -0.0725
AACGGCTA | -0.0515
ATAGGCCC | -0.29
AAGCAATA | 0.0993
AAGTACAC | 0.194
CTCGTCTA | -0.0182
CGCTAGTC | -0.189
GGCAGAAA | 0.0918
ATGGAGTA | 0.179
AGGAGAAC | -0.0513
CGTTGTAC | 0.0351
ATCCAGCA | -0.081
GCGTATAC | 0.0052
GGTCAGCA | 0.0461
CCGCATAC | -0.0248
ATCCCATG | -0.214
ATGTGCTC | -0.0139
GACGCGGA | 0.117
CAACGTCG | -0.102
CTCAAGGC | -0.0533
ATACACTC | 0.257
GTGAGGGA | -0.261

Sequence | PBM E-score
TAAGCACA | 0.235
GTCCTCAA | 0.0264
AATTCTGA | 0.129
CGGGTCCC | -0.356
GGTTTGGA | 0.00586
ACAGCCGG | 0.0561
ACCAAGCA | -0.0291
CATATTAA | 0.183
CCATTTTC | 0.0901
ACCGCCTA | -0.167
ACAGCACC | -0.121
AGTTATGC | 0.186
ACTGTTAC | -0.104
AAGCTCGA | 0.0269
ATGTCTGA | -0.135
CAGTGAAA | 0.138
AGTTATAA | 0.155
ATGTCGTG | -0.183
CGTACAAG | -0.0978
CGCATGTA | -0.208
CTAATTCA | 0.0247
CGAATCCG | 0.184
CAGATATA | 0.0963
CACGCTCC | -0.281
CCCCCCCG | -0.43

Sequence | PBM E-score
ATTCGCGA | -0.0269
ATAGTCAT | 0.0383
AAAAGCCT | -0.134
ATTCAACA | 0.162
AGCCTTTC | -0.197
GAAGTCAA | 0.0107
AATCCTTA | 0.0537
CCTTTAAC | 0.174
ATACACTA | 0.167
AGCCTCCC | -0.215
CCCGGGCC | 0.026
GTGTATAA | -0.112
GCCCTCGC | -0.292
ATGTGGCG | -0.155
CACACTCA | 0.138
AATAGGGT | 0.178
CCGACGCC | 0.0242
CCGACTGA | 0.122
CCTGATTA | 0.144
AGATCGGA | 0.348
ACAGTACA | 0.0765
AATTGTCC | 0.101
